The IC50 is the midpoint of a concentration-inhibition curve. Low values mean higher potency, high ones lower potency.

≈ marks a conversion by molar mass, not a printed value. Where “and” joins values, the source holds several entries; their conditions need not be identical. Equal values may be shown once. Where a name gives a salt, the structure may show the parent alone.

For this assay, the target named is purified Mycobacterium smegmatis 70S bacterial ribosomes (Mycolicibacterium smegmatis, UniProt A0QSG6). The assay is described as follows: biochemical. The protocol:
Aryl substituted aminomethyl spectinomycin analogs were synthesized as described above. Ribosomal inhibition (IC50) was determined in the ribosomal inhibition assay as described above and the data are shown in Table 2. The compound number corresponds to the compound numbers used in Table 1.
3′-Methylene aryl substituted aminomethyl spectinomycin analogs were evaluated for potency as ribosomal inhibitors using purified mycobacterial ribosomes, as described previously (Salian, et al. Antimicrob Agents Chemother. 2011 56(12), 6104-6108). […] Without wishing to be bound by a particular theory, the meta position appeared to be less preferred for substitution than para position. Adding a trifluoromethoxy (10) decreased binding by 10-fold. […] Without wishing to be bound by a particular theory, introduction of a nitrogen to the ortho (16) and meta (7) position of non-substituted aryl analog 1 was favorable, decreasing IC50's to 0.4 μg/mL in each case.

Chain of purified Mycobacterium smegmatis 70S bacterial ribosomes (A0QSG6 whole entry): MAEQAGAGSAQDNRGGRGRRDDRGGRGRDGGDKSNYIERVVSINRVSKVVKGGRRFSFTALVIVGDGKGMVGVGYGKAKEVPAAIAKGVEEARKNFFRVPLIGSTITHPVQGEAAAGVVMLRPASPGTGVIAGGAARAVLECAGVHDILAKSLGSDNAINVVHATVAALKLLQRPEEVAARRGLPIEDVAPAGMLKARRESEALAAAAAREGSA

In the case of `CCc1ccc(CNC[C@]2(O)C[C@@H](C)O[C@H]3O[C@@H]4[C@@H](O)[C@H](NC)[C@H](O)[C@H](NC)[C@H]4O[C@]32O)cc1` [compound 3, 3′-(R)-3′-[(4-ethyl)benzylaminomethyl)]dihydrospectinomycin Trihydrochloride], the IC50 (IC50) was 0.498 µM.

`CN[C@@H]1[C@H](O)[C@H](NC)[C@H]2O[C@]3(O)[C@H](O[C@@H]2[C@H]1O)O[C@H](C)C[C@@]3(O)CNCCc1ccc(OC)cc1` [compound 53, 3′-(R)-3′-[(4-methoxy)phenethylaminomethyl]dihydrospectinomycin Trihydrochloride]: the half-maximal inhibitory concentration (IC50) runs as follows: (IC50) 1.61 µM; (IC50 (Sm)) 1.61 µM.

`CN[C@@H]1[C@H](O)[C@H](NC)[C@H]2O[C@]3(O)[C@H](O[C@@H]2[C@H]1O)O[C@H](C)C[C@@]3(O)CNCc1ccccc1` [compound 1, 3′-(R)-3′-(benzylaminomethyl)dihydrospectinomycin Trihydrochloride] showed an IC50 (IC50) of 1.92 µM.

`CN[C@@H]1[C@H](O)[C@H](NC)[C@H]2O[C@]3(O)[C@H](O[C@@H]2[C@H]1O)O[C@H](C)C[C@@]3(O)CNCCC1CCOCC1` [compound 52, 3′-(R)-3′-[(2-(tetrahydro-2H-pyran-4-yl)ethyl)aminomethyl]dihydrospectinomycin Trihydrochloride]: the IC50 is 0.715 µM (IC50) and 0.715 µM (IC50 (Sm)).

Consider `CN[C@@H]1[C@H](O)[C@H](NC)[C@H]2O[C@]3(O)[C@H](O[C@@H]2[C@H]1O)O[C@H](C)C[C@@]3(O)CNCc1ccncc1` [compound 9, 3′-(R)-3′-(4-pyridinylmethylaminomethyl)dihydrospectinomycin Tetrahydrobromide], for which, under “IC50”, the midpoint of inhibition, the IC50, lay at 1.58 µM.

In the case of `CN[C@@H]1[C@H](O)[C@H](NC)[C@H]2O[C@]3(O)[C@H](O[C@@H]2[C@H]1O)O[C@H](C)C[C@@]3(O)CNCc1ccc(Cl)s1` [compound 21, 3′-(A′)-3′-[(5-Chloro)-2-thiophenylmethylaminomethyl)dihydrospectinomycin Trihydrobromide], under “IC50”, the IC50 was 0.81 µM.

Turning to `CN[C@@H]1[C@H](O)[C@H](NC)[C@H]2O[C@@]3(O)C(=O)C[C@@H](C)O[C@H]3O[C@@H]2[C@H]1O` [SPC, (2R,4aR,5aR,6S,7S,8R,9S,9aR,10aS)-4a,7,9-trihydroxy-2-methyl-6,8-bis(methylamino)decahydro-4H-benzo[b]pyrano[2,3-e][1,4]dioxin-4-one, reference compound], the “IC50 (Sm)” value ([…]) was 0.36 mg/L (≈ 1.08 µM). The IC50 (luciferase-based protein synthesis inhibition assay, purified Mycobacterium smegmatis ribosomes) was found to be 0.39 mg/L.

Turning to `CN[C@@H]1[C@H](O)[C@H](NC)[C@H]2O[C@]3(O)[C@H](O[C@@H]2[C@H]1O)O[C@H](C)C[C@@]3(O)CNCCc1ccc(Cl)cc1` [compound 54, 3′-(R)-3′-[(4-chloro)phenethylaminomethyl]dihydrospectinomycin Trihydrobromide], the IC50 is 5.94 µM (IC50) and 5.94 µM (IC50 (Sm)).

As to `CN[C@@H]1[C@H](O)[C@H](NC)[C@H]2O[C@]3(O)[C@H](O[C@@H]2[C@H]1O)O[C@H](C)C[C@@]3(O)CNCc1cnc[nH]1` [compound 20], 0.564 µM corresponded to half-maximal inhibition (IC50) (IC50).

Consider `CN[C@@H]1[C@H](O)[C@H](NC)[C@H]2O[C@]3(O)[C@H](O[C@@H]2[C@H]1O)O[C@H](C)C[C@@]3(O)CNCc1ccccn1` [compound 16, 3′-(R)-3′-(2-pyridinylmethylaminomethyl)dihydrospectinomycin Tetrahydrobromide], for which the IC50 (IC50) is 0.88 µM and 0.968 µM.

`CN[C@@H]1[C@H](O)[C@H](NC)[C@H]2O[C@]3(O)[C@H](O[C@@H]2[C@H]1O)O[C@H](C)C[C@@]3(O)CNCc1nccs1` [compound 19, 3′-(R)-3′-(2-thiazolylmethyl)aminomethyldihydrospectinomycin Tetrahydrobromide] gave an IC50 (IC50) of 1.17 µM.

Compound `CN[C@@H]1[C@H](O)[C@H](NC)[C@H]2O[C@]3(O)[C@H](O[C@@H]2[C@H]1O)O[C@H](C)C[C@@]3(O)CNCc1ccccc1Cl` [compound 56, 3′-(R)-3′-[(2-chloro)benzylaminomethyl]dihydrospectinomycin Trihydrobromide] had an IC50 (IC50) of 43.8 µM and a concentration for half-maximal inhibition (IC50) (IC50 (Sm)) of 43.8 µM.

For the origin of these results see US10266544B2, “Aryl substituted aminomethyl spectinomycin analogs as antibacterial agents” (ST. JUDE CHILDREN'S RESEARCH HOSPITAL, INC., priority 2013, dated 2019).
